Measured values published in US20200109202A1 (published 2020).

Legend:
aTriFlex_A [1] = assay: flow cytometry on primary human NK cells; w/o human IgG, 37 C
aTriFlex_A [2] = assay: flow cytometry on primary human NK cells; + 10 mg/mL human IgG, 37 C

B1: primary human NK cells (receptor)
chain: not shown
Kd (aTriFlex_A [1]): 33.6 nM
Kd (aTriFlex_A [2]): 665 nM
